Publication PMC10723142
These are yes or no findings as the source states them, for the method shown. In cells and extracts the contact can be indirect. Some entries that bind do so weakly or less than the wild type. Tags and fused reporters may be left off the sequences shown.

Molecular target: T1, His6-tagged full-length FleN (Fle^HisN^FL) (P. aeruginosa) (UniProt G3XD64)
T1 sequence: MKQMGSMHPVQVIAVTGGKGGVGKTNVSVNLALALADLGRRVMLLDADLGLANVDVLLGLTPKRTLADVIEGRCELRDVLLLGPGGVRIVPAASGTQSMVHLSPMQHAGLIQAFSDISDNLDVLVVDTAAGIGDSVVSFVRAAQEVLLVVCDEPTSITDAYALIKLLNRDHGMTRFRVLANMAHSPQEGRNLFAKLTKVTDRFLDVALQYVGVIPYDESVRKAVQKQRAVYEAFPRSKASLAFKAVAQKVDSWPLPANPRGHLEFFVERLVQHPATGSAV
Test: pull-down; coexpression in E. coli; His6-tagged bait held on Talon IMAC resin, untagged partner as prey; 20 mM HEPES pH 8.0, 120 mM NaCl, 19 mM imidazole; no nucleotide cofactors; wash over 40 column volumes; elution 200 mM imidazole; SDS-PAGE, Coomassie

Substance: FleQ variant missing the last 13 amino acids (FleQ^FL*) (from UniProt G3XCV0 1-477) (domain or fragment)
- binding: binds

Substance: FleQ receiver domain (FleQ^REC) (from UniProt G3XCV0 1-139) (domain or fragment)
- binding: no binding

Substance: FleQ AAA+-HTH tandem (FleQ^AAA+-HTH) (from UniProt G3XCV0 138-490) (domain or fragment)
- binding: no binding

Substance: isolated FleQ ATPase domain (FleQ^AAA+) (from UniProt G3XCV0 138-394) (domain or fragment)
- binding: no binding

Substance: FleQ receiver and ATPase domain tandem (FleQ^REC-AAA+) (from UniProt G3XCV0 1-394) (domain or fragment)
- binding: binds
